According to the supplement of paper PMC10126150:
Values marked as one replicate rest on one cluster of the flow cell; about a third of the high ones do not repeat.

Test system: ATP
Experiment: switch fluorescence ratio, 500 uM ATP over buffer (Cy3 cluster intensity, sum of 5 cycles each) (fold (ratio)); higher = stronger signal-on switching upon ATP binding; sequences stand for … in TCGTCGGCAGCGTCAGATGTGTATAAGAGACAGTTTTTTTTTTTTTTTTTTTTTTTTT…TC
Details: aptamer strand: ATP DNA aptamer (quencher-CACCTGGGGGAGTATTGCGGAGGAAGG + anchor), 100 nM annealed; ATP concentration: 500 uM; one replicate
Outline: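 Switching-strand clusters labelled with Cy3 on a modified Illumina MiSeq flow-cell were annealed to 100 nM quencher-labelled ATP aptamer, imaged in selection buffer, and re-imaged after 15 min with 500 uM ATP at 22 °C. This was done over five cycles with NaOH stripping and re-annealing in between. The fluorescence ratio is summed target-cycle over summed buffer-cycle Cy3 intensity per cluster, averaged per switch-domain sequence, excluding clusters outside 100-1000 RFU.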
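Also: ATP exposure 15 min at 22 °C before imaging.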

Sequence CATATTAAAT has a switch fluorescence ratio of 1.03.

With CGCTAGGGTC the switch fluorescence ratio was 1.05.

Work on GAATCAGCAG yielded a switch fluorescence ratio of 1.09.

In the case of CGCCAATTGT, the switch fluorescence ratio is reported as 1.04.

For TCCTGGCGTG, the switch fluorescence ratio was 1.03.

CAGTTAGGCC showed a switch fluorescence ratio of 0.992.

With AGTTTTTCTT the switch fluorescence ratio was 1.01.

AGTCAGATGA was tested, and the switch fluorescence ratio was 1.05.

Work on CTGATAGAT yielded a switch fluorescence ratio of 1.01.

TGGGCATGAA was tested, and the switch fluorescence ratio was 0.967.

TGACCAGCTT gave a switch fluorescence ratio of 1.

ACTTTCACT was tested, and the switch fluorescence ratio was 1.12.

Sequence AATCCGCCAG has a switch fluorescence ratio of 1.69.

AGGTTCCTGG gave a switch fluorescence ratio of 0.962.

ATAGCTGCGA was tested, and the switch fluorescence ratio was 1.02.

Sequence GTCGGAAAGT has a switch fluorescence ratio of 0.986.

In the case of GGTATATGGA, the switch fluorescence ratio is reported as 1.04.

In the case of AGCAAGTTCC, the switch fluorescence ratio is reported as 1.62.

TAACGGAAAT showed a switch fluorescence ratio of 1.28.

CTCTCCACCG was tested, and the switch fluorescence ratio was 1.29.

ATAGCCCGGC gave a switch fluorescence ratio of 1.01.

Sequence TTAGTATCAC has a switch fluorescence ratio of 1.03.

Sequence CCGTCGATCG has a switch fluorescence ratio of 1.01.

For CCGACGGGGG, the switch fluorescence ratio was 1.28.

With TGGGGTAGAA the switch fluorescence ratio was 0.994.

In the case of GACAACACGA, the switch fluorescence ratio is reported as 1.55.

AATAACGAAC showed a switch fluorescence ratio of 1.29.

Work on GCCTCTTTCG yielded a switch fluorescence ratio of 0.944.

For GTTCCCCGTA, the switch fluorescence ratio was 1.06.

With GGGACTTTAG the switch fluorescence ratio was 0.935.

In the case of CCAAGCTTTA, the switch fluorescence ratio is reported as 1.29.

TGGATGGTGT gave a switch fluorescence ratio of 0.993.

For AATACTAAGT, the switch fluorescence ratio was 0.972.

GTCGCGGGCC was tested, and the switch fluorescence ratio was 0.959.

With AATAGATACT the switch fluorescence ratio was 0.978.

For GAGTGAAATA, the switch fluorescence ratio was 0.986.

GATCATAT showed a switch fluorescence ratio of 0.971.

With ATGCAACGGT the switch fluorescence ratio was 1.04.

With CCGGCCTGGG the switch fluorescence ratio was 1.05.

In the case of GGATTTACAC, the switch fluorescence ratio is reported as 1.02.

Sequence GAACGCGGAG has a switch fluorescence ratio of 1.06.

Sequence TACTATAATG has a switch fluorescence ratio of 1.02.

With TCCACCGGTT the switch fluorescence ratio was 1.18.

For TGAGCGTTGT, the switch fluorescence ratio was 0.944.

Sequence GATTCCGCC has a switch fluorescence ratio of 2.37.

For CCCCAATCA, the switch fluorescence ratio was 1.47.

For TCATCGGGTA, the switch fluorescence ratio was 1.

TCCGTGGTGT was tested, and the switch fluorescence ratio was 1.27.

Work on AGAAACATCT yielded a switch fluorescence ratio of 0.999.

Work on GACTTCATAG yielded a switch fluorescence ratio of 1.

ACGTCTTCGC was tested, and the switch fluorescence ratio was 1.06.

With TCAACGTCTA the switch fluorescence ratio was 1.07.

In the case of GCCGTGATCA, the switch fluorescence ratio is reported as 0.96.

Work on ATCGTGGTAA yielded a switch fluorescence ratio of 0.975.

In the case of CAGAAATGTG, the switch fluorescence ratio is reported as 1.01.

Sequence CGCCCACAAT has a switch fluorescence ratio of 2.31.

TCGTGCTCTT gave a switch fluorescence ratio of 0.985.

AATTGTCCCC was tested, and the switch fluorescence ratio was 1.03.

CTGTACGCTC was tested, and the switch fluorescence ratio was 2.15.

Work on TGTACTCCAA yielded a switch fluorescence ratio of 1.1.

For ATATGCAAGG, the switch fluorescence ratio was 1.01.

In the case of TTTGCCCGGC, the switch fluorescence ratio is reported as 1.1.

Sequence GCGTACCCAT has a switch fluorescence ratio of 1.

For CCCATCAACA, the switch fluorescence ratio was 0.994.

With TAGACTTCTT the switch fluorescence ratio was 0.973.

In the case of ATGCCAGCTT, the switch fluorescence ratio is reported as 0.992.

TGTACCAAT showed a switch fluorescence ratio of 0.992.

Work on GGTGTTCAAG yielded a switch fluorescence ratio of 0.981.

GAGCTTTAT gave a switch fluorescence ratio of 0.982.

CTCTTAAAGG was tested, and the switch fluorescence ratio was 1.01.

GGGACACCCG showed a switch fluorescence ratio of 0.951.

For AAGCACGGGT, the switch fluorescence ratio was 1.02.

With TTCGAGTTGA the switch fluorescence ratio was 0.994.

Work on GCTTTAGTTG yielded a switch fluorescence ratio of 0.996.

GGGGCTGCG gave a switch fluorescence ratio of 1.

Work on AATCGGAGTA yielded a switch fluorescence ratio of 0.971.

Work on CACAGTTTCA yielded a switch fluorescence ratio of 0.997.

Work on TTGCGGTACA yielded a switch fluorescence ratio of 1.37.

Work on TCCGACATTC yielded a switch fluorescence ratio of 2.79.

ACCACGCCGG was tested, and the switch fluorescence ratio was 1.08.

Work on CGCATTAACG yielded a switch fluorescence ratio of 1.4.

ACTAAGGCAT gave a switch fluorescence ratio of 1.03.

CACCGGAAAT gave a switch fluorescence ratio of 1.1.

With GCCTAGCGGC the switch fluorescence ratio was 1.06.

For GATATTATAA, the switch fluorescence ratio was 0.987.

For TTGGGTCACC, the switch fluorescence ratio was 0.943.

CTTCACATCA showed a switch fluorescence ratio of 1.05.

In the case of CACACGCGTG, the switch fluorescence ratio is reported as 1.02.

Sequence TACGAGTTTG has a switch fluorescence ratio of 1.03.

With CTGCCACGTG the switch fluorescence ratio was 1.01.

Sequence ATTCTAATCT has a switch fluorescence ratio of 0.977.

With GGAAAAGTT the switch fluorescence ratio was 0.998.

Sequence AAGCCTATCT has a switch fluorescence ratio of 1.

In the case of GAGGACGATT, the switch fluorescence ratio is reported as 1.01.

CGTGGCCGCC gave a switch fluorescence ratio of 1.01.

CTTGCAGATG gave a switch fluorescence ratio of 1.01.

TTTACACTAA showed a switch fluorescence ratio of 1.04.

Sequence TGTTCAATGC has a switch fluorescence ratio of 1.24.

GAGAAAGGGA was tested, and the switch fluorescence ratio was 1.01.

CTTCATAGTG gave a switch fluorescence ratio of 0.957.

GACTACAACT gave a switch fluorescence ratio of 1.03.

Work on CGTACGACCA yielded a switch fluorescence ratio of 1.08.

GACTATAGAG showed a switch fluorescence ratio of 1.02.

In the case of CCTTGGGCA, the switch fluorescence ratio is reported as 1.03.

Work on CTAGCGCTGA yielded a switch fluorescence ratio of 1.03.

Work on GCCCTTGATG yielded a switch fluorescence ratio of 1.02.

ACGCCTATGG showed a switch fluorescence ratio of 0.943.

With ACATCCGGG the switch fluorescence ratio was 1.06.

With AGGTACGTCC the switch fluorescence ratio was 1.03.

For ATATTGGCGT, the switch fluorescence ratio was 0.965.

AGGAGAGTTC gave a switch fluorescence ratio of 1.38.

GGTAGGGCTT was tested, and the switch fluorescence ratio was 0.964.

For CCCGGATGGA, the switch fluorescence ratio was 0.973.

Work on AATAAGTCTG yielded a switch fluorescence ratio of 0.972.

ACCTTGACCT was tested, and the switch fluorescence ratio was 1.31.

For CCAACCGGCA, the switch fluorescence ratio was 1.26.

CGACTGCCAC gave a switch fluorescence ratio of 1.58.

For ACCGGCACAG, the switch fluorescence ratio was 1.17.

Work on AAGACCCCAA yielded a switch fluorescence ratio of 1.03.

In the case of CGCGTCTCCG, the switch fluorescence ratio is reported as 1.15.

GTCTAGTGAA was tested, and the switch fluorescence ratio was 1.09.

ACGAGTTGT was tested, and the switch fluorescence ratio was 0.986.

In the case of AAGGAGAGCG, the switch fluorescence ratio is reported as 1.05.

Work on GGTTCATATG yielded a switch fluorescence ratio of 1.04.

GGCCGGCTGA gave a switch fluorescence ratio of 1.

With CACATAAGAT the switch fluorescence ratio was 0.954.

For AAAATCCAAT, the switch fluorescence ratio was 1.05.

GCACACCTGT showed a switch fluorescence ratio of 1.01.

Sequence GGGCCAGCCT has a switch fluorescence ratio of 1.01.

Sequence CCTCTGGATG has a switch fluorescence ratio of 1.71.

AAATTACCGA showed a switch fluorescence ratio of 1.11.

Sequence GCGTTTAAAT has a switch fluorescence ratio of 0.986.

TTATCAGCGT showed a switch fluorescence ratio of 0.977.

Sequence ACGTTAGCAC has a switch fluorescence ratio of 1.02.

AAACGGTGGC gave a switch fluorescence ratio of 1.07.

CCTTCATACG gave a switch fluorescence ratio of 2.38.

TTACGGGCT showed a switch fluorescence ratio of 0.989.

In the case of GCTGGCCCGT, the switch fluorescence ratio is reported as 0.96.

AAACCGACAG gave a switch fluorescence ratio of 1.16.

Work on GTTCTTCA yielded a switch fluorescence ratio of 1.02.

Sequence TTGGTGGGCG has a switch fluorescence ratio of 0.94.

With GGCCATCGAA the switch fluorescence ratio was 0.981.

For ATCCGAGATT, the switch fluorescence ratio was 1.09.

Work on ATTAACTTT yielded a switch fluorescence ratio of 1.03.

With AGATGCTAAA the switch fluorescence ratio was 1.01.

For TAATTTCTCG, the switch fluorescence ratio was 0.972.

Work on TTTAGATTT yielded a switch fluorescence ratio of 0.972.

Sequence TCTTTCCGGC has a switch fluorescence ratio of 0.999.

GTAGTGGCTA showed a switch fluorescence ratio of 1.01.

Work on TGGTCTTCCC yielded a switch fluorescence ratio of 1.

Sequence CAGAATTAAG has a switch fluorescence ratio of 0.999.

For ACTTCCTTTA, the switch fluorescence ratio was 1.71.

For ATTAATGAGG, the switch fluorescence ratio was 0.99.

AAGTATTGTG was tested, and the switch fluorescence ratio was 0.993.

Sequence CTTTCGGACC has a switch fluorescence ratio of 0.99.

Sequence AAAGGTAGAC has a switch fluorescence ratio of 1.09.

For CCTACTGAGT, the switch fluorescence ratio was 1.1.

In the case of AGAGGAATGG, the switch fluorescence ratio is reported as 1.07.

With ACCCAGGAG the switch fluorescence ratio was 3.64.

TCAGCTTGCA was tested, and the switch fluorescence ratio was 1.11.

TCATTCGGGA showed a switch fluorescence ratio of 0.99.

CTGGGCATGT was tested, and the switch fluorescence ratio was 1.07.

AAAACGGTCA showed a switch fluorescence ratio of 1.06.

Work on TCACCTGGGT yielded a switch fluorescence ratio of 0.984.

GCCTAAAATT was tested, and the switch fluorescence ratio was 1.02.

For TTGAATCAGG, the switch fluorescence ratio was 1.04.

TACGGCAGGA was tested, and the switch fluorescence ratio was 1.08.

AGGTAGGGTT gave a switch fluorescence ratio of 1.04.

AAGGGCGCGC gave a switch fluorescence ratio of 1.13.

GGTGGCCGCG was tested, and the switch fluorescence ratio was 0.979.

Work on CGGGTACACA yielded a switch fluorescence ratio of 0.995.

CCCTGGCAGA gave a switch fluorescence ratio of 1.11.

Sequence TCGTTGTCTG has a switch fluorescence ratio of 1.04.

CACGTTGGCA showed a switch fluorescence ratio of 1.01.

Sequence CTGAAGCGTC has a switch fluorescence ratio of 1.19.

Work on TTTTGTTCTG yielded a switch fluorescence ratio of 1.08.

AACCAGGCGA showed a switch fluorescence ratio of 1.18.

Work on AACCTAGG yielded a switch fluorescence ratio of 0.989.

With GTTTTTGTCC the switch fluorescence ratio was 1.02.

GCAGATCCTG gave a switch fluorescence ratio of 0.976.

Work on CACACTTAGT yielded a switch fluorescence ratio of 1.05.

For GTAGTATAAC, the switch fluorescence ratio was 1.01.

GACACAGG showed a switch fluorescence ratio of 1.06.

CAGAGGATTT gave a switch fluorescence ratio of 0.949.

AGAAGTGGAC was tested, and the switch fluorescence ratio was 0.982.

TGATGTAGCT gave a switch fluorescence ratio of 1.01.

Sequence AAGAAGTATT has a switch fluorescence ratio of 0.993.

GCTGTGTGCG gave a switch fluorescence ratio of 1.02.

For TCCGATTTGA, the switch fluorescence ratio was 0.974.

ACGTTTATGG was tested, and the switch fluorescence ratio was 1.01.

In the case of ATGGGCCGGC, the switch fluorescence ratio is reported as 1.09.

TCGTGGATTA gave a switch fluorescence ratio of 1.

TTTTTATG was tested, and the switch fluorescence ratio was 1.02.

GGATTTGCTC was tested, and the switch fluorescence ratio was 0.976.

Work on AGGTTTAGCG yielded a switch fluorescence ratio of 0.999.

Work on AGGTAACTCA yielded a switch fluorescence ratio of 1.03.

AAGTTATTCG was tested, and the switch fluorescence ratio was 0.997.

Work on GAGATTGGTC yielded a switch fluorescence ratio of 1.01.

For TGGATTTAGG, the switch fluorescence ratio was 1.02.

GGGTAAGGTA gave a switch fluorescence ratio of 0.998.

Work on CAACCGCTGA yielded a switch fluorescence ratio of 3.94.
